# About 540 (0.36%) of roughly 150,000 compounds showed an effect of 50% or more. This is one part of the list.
# System: Plasmodium falciparum
# Test: Primary screen in NF54 nanoGlo assay, in single point, at 2uM, 72h; a lower Z score goes with more inhibition
# Assay type: functional, Erythrocyte
# Conditions: timepoint 72 hour
Compound,% Inhibition,Z score
COC1CS(=O)(=O)CC1NC(C)c1nccc2ccccc12 (stereo not drawn),1%,-0.21
Cc1cc2c(N3CC(Nc4nc(C)nc(C)c4F)C3)nccn2n1,-2%,0.52
CN(Cc1cn(CC(N)=O)c2ccccc12)CC1CCN(CCc2ccc(F)cc2)CC1,27%,-4.71
Cn1cc(-c2cc(CN3CC[C@H](CNc4ccccn4)C3)on2)cn1,8%,-1.68
c1ccc(-c2ncn(CC3CCNCC3)c2-c2ccc(-c3ccn[nH]3)o2)cc1,4%,-0.59
OC1(c2cccc(OC(F)(F)F)c2)CCN(Cc2ccc3cn[nH]c3c2)CC1,-2%,0.38
O[C@@H](CNCc1csc(-c2cccs2)n1)c1cccc(F)c1,7%,-1.05
c1cc(OCCN2CCOCC2)ccc1CN1CCCN(C2CCCC2)CC1,2%,-0.35
Fc1cccc(Cl)c1CCNC1CCN(CC2CC2)CC1,-2%,0.36
Cc1ccc(-c2cc(C(=O)NC3CCN(C4CCN(C)CC4)CC3)n[nH]2)cc1C,95%,-16.77
Cn1c(N2CC[C@H](Oc3ccccc3Cl)C2)cc(=O)n(C)c1=O,-2%,0.31
O=C(NCCn1cccn1)c1ccc(-c2cccc(N3CCNCC3)c2)cc1,1%,-0.21
CN[C@H](C(=O)N[C@H]1C[C@@](O)(C(=O)N[C@H](Cc2c[nH]c3ccccc23)C(N)=O)C[C@@H](O)[C@@H]1O)C(C)C,-9%,1.29
CC(C)[C@H](NC(=O)c1cc(F)cc2cccnc12)C(=O)N1CCOCC1,2%,-0.36
Cc1nnnn1Cc1ccc(C(=O)NCc2nc(-c3cnccn3)n[nH]2)cc1,-5%,0.86
CC(=C(F)C(=O)N1CCC(O)(c2c[nH]nn2)CC1)C1CC1,-8%,1.79
Cc1ccc2cc(CNC[C@H]3CCN(C4CC4)C3)ccc2n1,0%,0.09
Cc1noc([C@H]2C[C@H](CNC3CCN(c4ccncc4)CC3)[C@H](O)C2)n1,5%,-1.06
O=c1[nH]ccnc1N1CCC[C@H](NCc2ccccc2N2CCOCC2)C1,0%,-0.1
COCc1cc(C[C@H]2CNCC[C@H]2CC(=O)N2CCC(n3c(=O)[nH]c4ccccc43)CC2)no1,-7%,1
Cc1cccc(C(=O)NC(C)C(=O)N2CCC(C)C(n3ccnc3)C2)c1 (stereo not drawn),-10%,1.75
Cc1cc(CC2CN(C(=O)c3ccc(-c4noc(C5CC5)n4)cc3)CC2O)[nH]n1 (stereo not drawn),1%,-0.17
CCC(CC)NS(=O)(=O)c1ccc(NCc2ccc(N3CCN(C)CC3)nc2)nc1,6%,-0.95
Clc1cc(Cl)cc(-c2nnc3ccc(NCCc4nnc[nH]4)nn23)c1,-1%,0.23
Cn1cncc1CNC1CCN(Cc2ccc(F)c(F)c2)CC1,-3%,0.48
Cc1cc(Oc2cc(Cl)ccc2CNc2cc(C(N)=O)ncn2)ccc1Cl,4%,-0.79
O=c1c(CNCCc2c[nH]c3ccccc23)cc2cc3c(cc2n1CCN1CCCCC1)OCO3,8%,-1.46

Compound,% Inhibition,Z score
CCC(CC)C(=O)N1CCC(NC2CCCC2C2CCCN2C(=O)OC(C)(C)C)CC1 (stereo not drawn),-3%,0.69
Cc1ccc(C2CCN(C(=O)c3nccc4cccnc34)CC2)cn1,-6%,1.26
Cc1cc(C)cc(N2C(N)=NC(N)=N[C@H]2c2ccccc2F)c1,-1%,0.11
CN1CCC(Oc2ccc(NC(=O)c3cn4ccnc4s3)cn2)CC1,90%,-15.87
O=C(Nc1ccc2[nH]ncc2c1)NC1COCC1N1CCCCC1 (stereo not drawn),-1%,0.22
Cc1nccc(-c2cccc(N3CCC(N[C@H]4CC(=O)N(C)C4)CC3)c2)n1,-5%,0.94
COc1c(Cl)cc(Cl)cc1CNCCN1CCN(C)CC1,-6%,1.02
CCc1cccc(OC2CN(C3CCN(c4cc(C)nc(N)n4)CC3)C2)c1,-3%,0.5
CCN1CCC(N2CCC(c3nc(-c4ccsc4)no3)CC2)CC1,6%,-1.15
CN1CCN(c2ncncc2N2CCC(C(=O)N(C)Cc3ccccc3)CC2)CC1,-3%,0.55
CCCNC(=O)CN(C)C(=O)CN(CCN1CCN(c2cccc(C)c2)CC1)CC1CC1,-3%,0.58
C[C@@H](C(=O)N1Cc2ccccc2OC2(CCN(C(=O)c3cnc4[nH]ncc4c3)CC2)C1)N(C)CC(F)(F)F,-3%,0.5
O=C(Nc1ccc2[nH]ncc2c1)[C@@H]1COCCN1C1CCCC1,-6%,1.01
Cc1cc(C)c2nc(CN3CCN(CC(=O)NC(C)C)CC3)cc(O)c2c1,-4%,0.68
c1ncc(-c2ccc3c(c2)CCN3)cc1NCC1CC1,0%,-0.08
NC(=O)C1(N2CCCCC2)CCN(c2ncnc3c2[nH]c2ccc(F)cc23)CC1,-1%,0.12
FC(F)Oc1cccc(CNc2nn3cc(-c4cccnc4)nc3s2)c1,-14%,2.06
c1ccc2c(CNCCC3CCN(c4ccncc4)CC3)csc2c1,80%,-17.16
Cc1ccc(-c2cc(C(=O)N[C@H]3CCCN(Cc4cccnc4)C3)[nH]n2)cc1,-16%,2.82
COc1c2c(cc3c1[C@H](CNC(=O)CCc1cn(C)c4ccccc14)N(C)CC3)OCO2,-7%,1.06
CC(C)CC1(C(=O)N2CCN(C(=O)N(C)C)CC2)CCCC1,5%,-1.05
Cc1cc2nc(CN(C)C(=O)C[C@H]3CCNC3)[nH]c2cc1C,-4%,0.68
CC(C)Oc1cc(NCCN2CCC[C@H](CO)C2)nc(N)n1,-17%,3.77
CC(=O)N[C@@H](C)C(=O)NC(C)(C)c1ccc(OC(F)(F)F)cc1,4%,-0.7
Cc1nc(NC2COCC2N2CCN(C)CC2)cc(C2CCNCC2)n1 (stereo not drawn),-2%,0.31
CC1(C)[C@@H](c2cccc(Cl)c2)CCN1CCC(=O)O,-3%,0.58
COc1ccnc(NC2CCN(C(=O)[C@H](C)N3CCc4ccccc43)CC2)n1,-7%,1.12

Compound,% Inhibition,Z score
O[C@@H](CNc1nccc(N2CCOCC2)n1)COc1ccc(F)c(F)c1,-8%,1.28
CCN(CCC(=O)N1CCN(c2ccccn2)CC1)C1CCN(C(C)c2ccccc2)C1 (stereo not drawn),6%,-1.2
O=C(CN1CCOCC1)NC[C@H]1CCCN(Cc2ccc3[nH]ccc3c2)C1,-2%,0.32
CCc1ccc(-c2cc(C(=O)N[C@@H](C)c3nc(-c4ccncc4)no3)[nH]n2)cc1,-1%,0.1
CC(=O)N[C@@H](Cc1c[nH]cn1)C(=O)NC1CCN(C2CCN(C)CC2)CC1,-7%,1.05
CC(C)c1ccc(-c2ncc(CN(C)CC(=O)NC3CC3)s2)cc1,-9%,1.51
COc1ccc(CCNc2ccc3cc(C#N)ccc3n2)cc1,-7%,1.17
Cc1ccc2c(-c3ccccc3)nc(Nc3nc4ccccc4[nH]3)nc2c1,-10%,1.53
CNCCCCNCc1cc(O)c2cc(C)cc(C)c2n1,-8%,1.81
CS(=O)(=O)N1CC(Oc2cccnc2)CC1C(=O)N1CCC(N2CCCCC2)CC1 (stereo not drawn),-2%,0.35
CN1CCN(CC2(C)CCN(C(=O)c3ccc(-c4cnco4)cc3)CC2)CC1,-7%,1.14
COc1cc2c(cc1OC)[C@@H](NC(=O)c1cccc(Nc3ncccn3)c1)CC2,-5%,0.69
CC(C)[C@@H]1NC(=O)[C@H](C)NC(=O)[C@H]([C@@H](C)O)NC(=O)c2cc(on2)CN(C(=O)C2CCCC2)CCNC1=O,-8%,1.33
Oc1nc2ccccc2cc1CN[C@H]1CCCN(c2ccncn2)C1,-10%,1.45
Cc1[nH]c2ccccc2c1-c1cc(-c2ccccc2)nc(-c2ccccc2)c1,-8%,1.44
CCN1C(=O)C[C@@H](CNCc2ccc3cn[nH]c3c2)[C@@H]1c1nccn1C,4%,-0.57
Cc1ccccc1[C@@]1(CC(=O)N(Cc2c(C)nn(C)c2C)C(C)C)CC(=O)N(CCN(C)C)C1=O,-12%,2.08
COc1cc2nc(NCC3(N4CCN(C)CC4)CCCC3)cc(C)c2cc1OC,55%,-8.35
Cc1cc(C(=O)NC2CCN(c3nc(-c4cccs4)nc4ccccc34)CC2)on1,-1%,0.26
CCN1CCNC(=O)[C@@H]1CC(=O)N1CC(Oc2ccccc2Cl)C1,-3%,0.57
Cc1nccn1-c1ccccc1CNC1CCC2(CCNCC2)CC1,10%,-2.05
c1ccc(CCCc2noc(-c3ccc(NC4CCNCC4)nc3)n2)cc1,1%,-0.19
c1ccc2c(c1)CCO[C@H]2CNC1CCN(c2ccc(-c3cc[nH]n3)cc2)CC1,-7%,1.22
Nc1nccc(-c2cccc(C(=O)N3CCN(C4CCCCC4)CC3)c2)n1,-5%,0.94
CCc1csc(-n2cc(C(=O)NC3CCC4(CCOCC4)CC3)cn2)n1,-1%,0.13

# Source: ChEMBL document CHEMBL5308541, “MAIP: An Open-Source Tool to Enrich High-Throughput Screening Output and Identify Novel, Druglike Molecules with Antimalarial Activity” (ACS Med Chem Lett, 2023)
